Experimental data: article PMC4336329 (PLoS ONE, 2015)
Screen size: about 310,000 compounds; about 14,000 (4.5%) showed an effect of 50% or more. The effect is printed as a negative number. Some of the results follow.

Target: human ether-à-go-go-related gene (hERG) potassium channel (human, UniProt Q12809)
Assay: primary screen, population patch clamp on CHO cells stably expressing hERG
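Also: peak tail current of the secondary pulse compared with the same well before compound.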

Sequence of human ether-à-go-go-related gene (hERG) potassium channel (Q12809 whole entry, looked up): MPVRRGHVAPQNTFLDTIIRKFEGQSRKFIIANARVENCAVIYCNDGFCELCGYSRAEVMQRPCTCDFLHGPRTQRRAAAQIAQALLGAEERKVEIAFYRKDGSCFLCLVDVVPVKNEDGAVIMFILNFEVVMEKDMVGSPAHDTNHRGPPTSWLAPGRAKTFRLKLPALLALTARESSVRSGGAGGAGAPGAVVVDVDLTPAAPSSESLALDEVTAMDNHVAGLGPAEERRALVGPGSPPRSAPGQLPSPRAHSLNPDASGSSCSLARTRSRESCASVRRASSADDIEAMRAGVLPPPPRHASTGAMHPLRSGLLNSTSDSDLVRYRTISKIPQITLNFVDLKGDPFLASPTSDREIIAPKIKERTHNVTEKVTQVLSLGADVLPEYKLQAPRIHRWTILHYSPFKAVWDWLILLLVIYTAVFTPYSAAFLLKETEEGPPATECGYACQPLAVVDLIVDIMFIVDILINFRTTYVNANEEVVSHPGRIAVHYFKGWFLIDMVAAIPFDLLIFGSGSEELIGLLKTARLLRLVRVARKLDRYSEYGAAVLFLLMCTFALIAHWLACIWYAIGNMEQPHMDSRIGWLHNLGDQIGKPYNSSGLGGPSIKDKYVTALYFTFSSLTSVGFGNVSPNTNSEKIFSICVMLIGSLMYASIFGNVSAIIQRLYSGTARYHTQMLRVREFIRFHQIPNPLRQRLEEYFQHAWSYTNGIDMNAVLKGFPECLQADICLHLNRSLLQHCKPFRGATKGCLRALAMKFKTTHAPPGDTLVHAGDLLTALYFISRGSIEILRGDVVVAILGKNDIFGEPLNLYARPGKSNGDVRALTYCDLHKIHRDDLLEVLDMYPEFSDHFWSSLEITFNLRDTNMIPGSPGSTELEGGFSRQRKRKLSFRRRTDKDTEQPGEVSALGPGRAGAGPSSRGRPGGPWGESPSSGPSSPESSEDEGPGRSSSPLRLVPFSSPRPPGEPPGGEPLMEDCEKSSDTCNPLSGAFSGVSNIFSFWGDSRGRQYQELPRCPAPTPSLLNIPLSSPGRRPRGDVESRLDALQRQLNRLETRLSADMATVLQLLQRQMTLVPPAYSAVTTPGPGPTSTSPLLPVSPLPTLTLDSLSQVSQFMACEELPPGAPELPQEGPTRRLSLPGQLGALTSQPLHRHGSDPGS

| SMILES | hERG current change (%, negative = inhibition) at 10uM [%] |
| --- | --- |
| CSc1ccc(/C=N/NC(=O)c2cc(O)cc(O)c2)cc1 | 8.66 |
| Cc1cc([N+](=O)[O-])ccc1NCc1ccco1 | -11 |
| O=C(Nc1nnc(S(=O)(=O)N2CCOCC2)s1)c1ccccc1Cl | -3.08 |
| COc1cc2cc(CCCOC(=O)c3ccc4c(c3)OCO4)oc(=O)c2cc1OC | -4.11 |
| COc1ccccc1NC(=O)Nc1ccc2c(c1)CCC2 | -0.142 |
| N/C(=N\OC(=O)c1cc(-c2ccccc2)nc2ccccc12)c1ccc(Cl)cc1 | -3.98 |
| CSc1cccc(NC(C)C(=O)NCc2ccccc2)c1 (stereo not drawn) | 2.74 |
| O=C(COc1ccc([N+](=O)[O-])cc1Cl)Nn1cnnc1 | 8.56 |
| CCCC(c1nnnn1C(C)(C)CC)N1CCN(C(=O)c2ccco2)CC1.Cl (stereo not drawn) | -54 |
| Cc1cc(C)n2nc(SCCOc3ccc(F)cc3)nc2n1 | -68.8 |
| CCN=c1scc(C)n1/N=C/c1cc(Br)c(O)c(OC)c1 | 3.65 |
| CCC(=O)N1CCc2cc(S(=O)(=O)CCC(=O)Nc3ccc(C)cn3)ccc21 | -2.45 |
| CCN(C(=O)COC(=O)C1CCN(S(=O)(=O)c2ccc(C)c(C)c2)CC1)C1CCS(=O)(=O)C1 (stereo not drawn) | -7.82 |
| COc1ccccc1NS(=O)(=O)c1cc(NC(=O)c2ccc3ccccc3n2)ccc1Cl | 2.78 |
| O=c1cc(-c2ccccc2F)nc(-c2ccccc2F)o1 | 9.7 |
| COc1ccc(-n2c(O)c(C(C)=NCCc3c[nH]c4ccccc34)c(=O)[nH]c2=O)cc1 | 14.6 |
| S=c1nc(-c2cc(Cl)cc(Cl)c2)[nH][nH]1 | 31.9 |
| O=C(Nc1cc(C(F)(F)F)ccc1Cl)C(Sc1nnc(-c2cccs2)o1)c1ccccc1 (stereo not drawn) | 20.2 |
| CN(C)S(=O)(=O)c1ccc(Cl)c(C(=O)Nc2nc3ccccc3[nH]2)c1 | 9.62 |
| O=C(O)CCC(=O)N1CCc2cc(S(=O)(=O)NC3CCCc4ccccc43)ccc21 (stereo not drawn) | -5.02 |
| O=C(COC(=O)CNC(=O)c1ccccc1)Nc1ccc(F)c([N+](=O)[O-])c1 | -18.3 |
| O=C(O)C(F)(F)F.O=C1C(Cc2ccccc2)Nc2ncnc(N3CCN(c4ccccc4)CC3)c2N1Cc1ccccc1 (stereo not drawn) | -0.882 |

| SMILES | hERG current change (%, negative = inhibition) at 10uM [%] |
| --- | --- |
| CCOC(=O)c1c(NC(=O)CSc2nc3cccnc3n2C)sc(C(C)=O)c1C | -10.2 |
| CC(C)(C)C(=O)Nc1cc(S(=O)(=O)N2CCCCC2)ccc1N1CCCCC1 | -3.26 |
| CCCSCCCNC(=O)Cn1cc2c(n1)CCCCC2 | 7.82 |
| CCc1ccc(Nc2nnc(SCC(=O)Nc3ccc(C(=O)O)cc3)s2)cc1 | 8.42 |
| Cc1ccnc(NS(=O)(=O)c2ccc(NC(=O)C3CCCO3)cc2)n1 (stereo not drawn) | 2.9 |
| CC(C)Cn1c(-c2cc(Br)ccc2F)nc2c1c(=O)[nH]c(=O)n2CC(C)C | -4.07 |
| CC(=O)Nc1cccc(NC(=O)Nc2ccc(F)cc2F)c1 | 15.3 |
| Cc1ccccc1NC(=O)COC(=O)/C=C/c1cccc(C(F)(F)F)c1 | -4.07 |
| O=C(O)CCC(=O)N(Cc1ccco1)C1CC(=O)N(c2ccccc2)C1=O (stereo not drawn) | 16.2 |
| CCCCn1c(O)c(C(CC)=NC(C)c2ccccc2)c(=O)[nH]c1=O (stereo not drawn) | -29.3 |
| COc1ccc(/C(O)=C2\C(=O)C(=O)N(CCN(C)C)C2c2cccc(OC)c2OC)cc1 (stereo not drawn) | 5.18 |
| COc1cc(/C=N/NC(=O)Cc2ccc(Br)cc2)cc(OC)c1O | 25.8 |
| c1ccc(CCC2CCCCN2Cc2cn[nH]c2-c2cc3ccccc3o2)nc1 (stereo not drawn) | -74.9 |
| CCOC(=O)c1cn[nH]c1NC(=S)Nc1ccc(OC)cc1 | 14.5 |
| COc1ccccc1N1CCN(C(=O)C2CCN(S(=O)(=O)c3ccccc3F)CC2)CC1 | -15.1 |
| CC(CNC(=O)COc1ccccc1)OC(=O)Nc1ccc(Cl)c(Cl)c1 (stereo not drawn) | -14.9 |
| CC1CC(C)CN(C(=O)Cn2ncc3c([nH]c4ccccc43)c2=O)C1 (stereo not drawn) | 1.33 |
| Cc1oc2c(cc(NS(=O)(=O)c3ccc4c5c(cccc35)C(=O)N4)c3ccccc32)c1C(=O)OC(C)C | 5.33 |
| CC1S/C(=N/N=C/c2cccs2)NC1=O (stereo not drawn) | 7.44 |
| O=C1C=C(c2cc3ccccc3s2)C[C@@H](c2ccc3c(c2)OCO3)C1 | 12.6 |
| O=S(=O)(c1ccc(F)cc1)N(CCO)CC(O)Cn1c2ccccc2c2ccccc21 (stereo not drawn) | -3.36 |
| COCc1cc(C)nc(OCC(=O)N/N=C/c2cccc(OC)c2)c1C#N | -2.24 |

| SMILES | hERG current change (%, negative = inhibition) at 10uM [%] |
| --- | --- |
| CNC(=O)COC(=O)c1cc(-c2ccc(OC)cc2)nc2ccccc12 | -9.55 |
| COc1ccc2[nH]cc(CCN(C)C)c2c1 | 18.9 |
| O=C(NC1CC1)C1=C[C@H](c2csc3ccccc23)C[C@H](OCCCCO)O1 | -24.1 |
| Cc1cc(C)n2nc(CC(=O)NNC(=O)c3ccccc3Cl)nc2n1 | 13.2 |
| Cc1cccc(NC(=O)c2cc3ccccc3nc2C)c1 | 9.2 |
| c1ccc(SCc2nc(-c3ccncc3)n[nH]2)nc1 | 12.6 |
| O=C(Nc1cccc2ccccc12)c1cnsn1 | 5.58 |
| O=C(Nc1ccc2c(c1)CCC2)c1c(F)cccc1Cl | 36.1 |
| Cc1ccc(-c2csc(N(Cc3ccccc3)C(=O)COc3ccccc3)n2)cc1 | 7.08 |
| CCOC(=O)c1nn(-c2ccccc2)c2nnc(Cc3ccccc3)c(=O)n12 | 1.04 |
| O=C1C(c2ccc(F)cc2)N(Cc2ccc3c(c2)OCO3)C(=O)CN1C1CCCC1 (stereo not drawn) | -30.7 |
| Cc1ccc(/C=C(\CCC(=O)O)c2nc3ccccc3s2)cc1[N+](=O)[O-] | 16 |
| Cc1cc(C)cc(NC(=O)C(Sc2ncnc3ccccc23)c2ccccc2)c1 (stereo not drawn) | 16.1 |
| CCN1CCN(c2ccc(S(=O)(=O)N3CCCCC3)cc2NC(=O)COc2ccccc2)CC1 | -66.6 |
| O=C(NCC1(c2ccccc2)CCCC1)C(=O)N1CCOCC1 | 11 |
| O=C(NC1CCCC1)C(c1ccccc1F)N(C(=O)c1csnn1)C1CC1 (stereo not drawn) | 1.26 |
| Cc1ccc(OC(=O)c2cc3ccccc3o2)cc1 | 22.2 |
| S=C(NCC1(c2ccccc2)CCCC1)Nc1ccccc1 | 23.8 |
| CC(C)CC(=O)NC1(C(F)(F)F)NC(=O)N(c2ccccc2)C1=O (stereo not drawn) | 26 |
| COc1ccc(C(=O)NCc2ccc3c(c2)OCO3)cc1S(=O)(=O)NCc1ccc(Cl)cc1 | -38.6 |
| COC(OC)c1ccnc(-c2ccc(OC(=O)c3ccccc3)cc2)n1 | 31 |
| C/C(=N\Nc1cc(N2CCOCC2)nc(C)n1)c1ccc(F)cc1 | -12 |

| SMILES | hERG current change (%, negative = inhibition) at 10uM [%] |
| --- | --- |
| CC1C(=O)OC(c2ccc(Cl)cc2)C(C)(C)C1=O (stereo not drawn) | 15.3 |
| CN1CCCN(C(=O)c2ccc(Br)s2)CC1 | -14.5 |
| COC(=O)c1sccc1NC(=O)COc1ccc(C)cc1 | 33.3 |
| Nc1ccc(S(=O)(=O)c2cccc(N)c2)cc1 | -1.51 |
| O=Cc1sc(N2CCOCC2)nc1-c1ccccc1 | 3.83 |
| O=c1[nH]c(C2CCN(S(=O)(=O)c3ccc4c(c3)OCCO4)CC2)nc2c1nnn2Cc1cccc(F)c1 | 3.14 |
| Cc1ccc2c(c1)NCC(C(=O)NCc1ccccc1)O2 (stereo not drawn) | 1.28 |
| O=C(c1ccc(CS(=O)(=O)c2c(Cl)cccc2Cl)o1)N1CCCC1 | -11.2 |
| CC(C)C[C@H](NC(=O)N1c2ccccc2NC(=O)[C@@H]1C(C)C)C(=O)N[C@@H](Cc1ccccc1)C(=O)O | -2.11 |
| O=C(Cc1ccccc1)N1CCN(Cc2ccccc2Cl)CC1.O=C(O)C(=O)O | 7.24 |
| O=Nc1onc(-c2ccc([N+](=O)[O-])cc2)c1NO | 17 |
| COc1ccc(Cc2nc(=S)[nH][nH]2)cc1Br | 22.7 |
| O=C(Nc1ncc(Cc2ccccc2)s1)C1=NCCN1 | 6.81 |
| CN(CC(=O)Nc1nc2ccccc2s1)S(=O)(=O)c1ccccc1 | -6.25 |
| CSc1nc(-c2ccccc2)nc(N2CCOCC2)c1C(C)=O | 10.9 |
| Cc1ccccc1SCC(=O)NNC(=O)c1ccccc1O | -0.473 |
| O=C1C(Cl)=C(N2CCOCC2)C(=O)N1CCc1ccccc1 | -36.6 |
| CN(C)S(=O)(=O)c1ccc(C(=O)Nc2nnc(-c3ccc4c(c3)CCCC4)o2)cc1 | 5.76 |
| N#Cc1c(NC(=O)c2cc(-n3cnnc3)ccc2Cl)sc2c1CCCC2 | 15.4 |
| O=C(O)C1Cc2c([nH]c3ccccc23)C(c2ccc3c(c2)OCO3)N1 (stereo not drawn) | 4.15 |
| Cc1ccc(NC(=O)CSc2nnc(C3COc4ccccc4O3)o2)c(Cl)c1 (stereo not drawn) | 12.5 |
